{"source": "PubChem BioAssay AID624296", "about": "(National Center for Advancing Translational Sciences (NCATS), 2012)", "note": "The whole screen tested about 350,000 compounds, of which about 9,900 (2.8%) were called active. Inconclusive means that the source gave no clear call. Such entries were picked first, then a sample of the others. Calls follow the shape of the dose curve; as a rule, active = well fitted activation curve with a large enough effect; inconclusive = small, poorly fitted or top-dose-only effect; inactive = no such curve, though single readings can be large or run the other way. Potencies of inconclusive entries are left out as doubtful fits. Potency is read from the fitted curve at half-maximal effect; tags tell the direction and shape of the fitted curve.", "data": [{"experiment": "A quantitative high throughput screen for small molecules that induce DNA re-replication in MCF 10a normal breast cells; also: nearly all actives have a fitted effect of over 50% in size; as to activity, positive = re-replication: % of control where 0% means no effect.", "settings": "MCF 10A DNA re-replication, Hoechst nuclear intensity, 48 h; activity, positive = re-replication: at 46.1 µM (top of the series)", "values": [{"smiles": "COc1cc([C@@H]2CC=C(C(=O)O)[C@H](c3ccc(Cl)cc3)N2S(=O)(=O)c2ccc(C)cc2)cc(OC)c1OC", "Potency": "inconclusive [activator, single point]"}, {"smiles": "Cc1ccc(/C=C2/C(=O)ON=C2c2ccccc2)o1", "Potency": "inconclusive [activator, single point]"}, {"smiles": "O=C(CCS(=O)(=O)c1ccccc1)Nc1nc2ccc(F)cc2s1", "Potency": "inconclusive [activator, single point]"}, {"smiles": "COc1ccccc1CC(=O)N(CCC1=CCCCC1)c1c(N)n(Cc2ccccc2)c(=O)[nH]c1=O", "activity, positive = re-replication": "inactive: 6.68%"}, {"smiles": "CC(C)(C)C(=O)c1sc(Nc2ccccc2)nc1N", "activity, positive = re-replication": "inactive: -1.14%"}, {"smiles": "CC(/C=N/NC(=O)Cn1nccc1C)=C\\c1ccc(C(C)C)cc1", "Potency": "inconclusive [activator, single point]"}, {"smiles": "Cc1cccc(C)c1OCc1cc(C(=O)N2CCC(c3ccncc3)CC2)no1", "activity, positive = re-replication": "inactive: 10.8%"}, {"smiles": "C#Cc1ccc([C@@H]2C=C(C(=O)N3CCOCC3)O[C@H](OCC)[C@H]2CCCO)cc1", "Potency": "inconclusive [activator, single point]"}, {"smiles": "O=C(C1CCCCC1)N1CCC(CO)(Cc2ccccc2Cl)CC1", "activity, positive = re-replication": "inactive: -2.33%"}, {"smiles": "Cc1ccc(/C=N/N2CCN(Cc3cccc4ccccc34)CC2)o1", "Potency": "inconclusive [activator, partial curve, poor fit]"}, {"smiles": "COc1ccc(CCNC(=O)COC(=O)c2ccccc2NCCO)cc1OC", "activity, positive = re-replication": "inactive: -4.68%"}, {"smiles": "CC1Oc2ccccc2OC1C(=O)Nc1ccccn1", "note": "(configuration not stated)", "Potency": "inconclusive [activator, single point]"}, {"smiles": "COc1ccc(NC(=O)CSc2nc3ccccc3c(=O)n2CCCN2CCCCC2)c(OC)c1", "Potency": "inconclusive [activator, single point]"}, {"smiles": "Cc1ccc(-n2c(=O)[nH]c3c(C(N)=O)nc(-c4ccc(C)o4)nc32)cc1", "Potency": "inconclusive [activator, single point]"}, {"smiles": "Cc1ccc2cc(C#N)c(N3CCCN(C(=S)NCCCN(C)C)CC3)nc2c1", "Potency": "active: 3.66 µM"}, {"smiles": "O=[N+]([O-])c1cc(C(F)(F)F)cc([N+](=O)[O-])c1N1CCN(S(=O)(=O)c2ccccc2)CC1", "Potency": "inconclusive [activator, partial curve, poor fit]"}, {"smiles": "Nc1c(C(=O)c2ccc(Cl)cc2)sc2nsc(SCCN3CCOCC3)c12", "Potency": "inconclusive [activator, partial curve]"}, {"smiles": "Cc1ccc2oc(C(=O)N3CCN(c4cccc(C)n4)CC3)c(C)c2c1", "Potency": "inconclusive [activator, single point]"}, {"smiles": "Cc1ccc2oc(-c3cccc(NC(=O)c4ccc(Br)o4)c3C)nc2c1", "Potency": "inconclusive [activator, single point]"}, {"smiles": "COc1cc(NC(=O)c2ccccc2)ccc1NC(=O)c1cc2ccccc2o1", "Potency": "inconclusive [activator, full curve]"}, {"smiles": "Cc1ccc(-n2c(C)cc(/C=N/Nc3ccc([N+](=O)[O-])cn3)c2C)c(C)c1", "Potency": "inconclusive [activator, partial curve, poor fit]"}, {"smiles": "CC(=O)c1ccc(NC(=O)C2C3C=CC(C3=C(c3ccccc3)c3ccccc3)C2C(=O)O)cc1", "note": "(configuration not stated)", "Potency": "inconclusive [activator, partial curve, poor fit]"}, {"smiles": "CCc1ccc(OCC(=O)Nc2ccncc2)c(Br)c1", "Potency": "inconclusive [activator, single point]"}, {"smiles": "O=C(NNC(=S)NC(=O)c1cccnc1)c1ccc(Cl)cc1", "activity, positive = re-replication": "inactive: 3.89%"}, {"smiles": "Cc1ccccc1N1CCN(S(=O)(=O)c2nnc(NC(=O)CC(C)C)s2)CC1", "Potency": "inconclusive [activator, partial curve]"}, {"smiles": "CCSc1nnc(NC(=O)c2ccc(F)c(S(=O)(=O)N3CCOCC3)c2)s1", "Potency": "inconclusive [activator, single point]"}, {"smiles": "COc1cc(C(=O)NCC(=O)N2CCN(S(=O)(=O)c3ccccc3C(F)(F)F)CC2)cc(OC)c1OC", "Potency": "inconclusive [activator, single point]"}, {"smiles": "Cc1cc(=O)oc2c1ccc1oc(/C(=N/O)c3ccccc3)c(C)c12", "Potency": "inconclusive [activator, single point]"}, {"smiles": "O=C(NNC1=C(C(=O)C(F)(F)F)CCC1)c1ccccc1O", "Potency": "inconclusive [activator, single point]"}, {"smiles": "COc1ccc(CNC(=O)C(c2ccc(C)o2)N(C(=O)c2snc(C(N)=O)c2N)c2ccccc2OC)cc1", "note": "(configuration not stated)", "Potency": "inconclusive [activator, single point]"}, {"smiles": "CNc1snc(C)c1C(=O)OCC(=O)Nc1ccc(C)cc1F", "Potency": "inconclusive [activator, single point]"}, {"smiles": "CCN1C(=O)[C@@H]2[C@@H](c3ccc(-c4ccc(F)cc4)cc3)N3CCCC[C@@]3(C(=O)OC)[C@@H]2C1=O", "Potency": "inconclusive [activator, single point]"}, {"smiles": "Cc1cccnc1Nc1nc(-c2ccc(O)cc2O)cs1", "Potency": "inconclusive [activator, single point]"}, {"smiles": "COc1ccccc1CNC(=O)c1cc(-c2ccccc2)nn1CC1CC(c2cccc([N+](=O)[O-])c2)=NO1", "note": "(configuration not stated)", "Potency": "inconclusive [activator, single point]"}, {"smiles": "O=C(c1ccccc1)N1CCN(c2ccc([N+](=O)[O-])c(NCC3CCCO3)c2)CC1", "note": "(configuration not stated)", "Potency": "inconclusive [activator, single point]"}, {"smiles": "CCOc1ccc2nc(NC(=O)c3ccc(C)o3)sc2c1", "activity, positive = re-replication": "inactive: 11.1%"}, {"smiles": "O=c1c(Cc2c(F)cccc2Cl)c(O)ccn1C1CCCCCC1", "Potency": "active: 0.184 µM"}, {"smiles": "Cn1c(NNC(=O)c2ccc(C(C)(C)C)cc2)cc(=O)n(C)c1=O", "activity, positive = re-replication": "inactive: 4.1%"}, {"smiles": "C=CCN1C(=O)/C(=C\\c2ccc(Cl)cc2)N=C1SCC(=O)NCCC", "activity, positive = re-replication": "inactive: -3.21%"}, {"smiles": "Cc1cc(N2CCN(C(c3ccccc3)c3ccccc3)CC2)n2ncnc2n1", "Potency": "inconclusive [activator, single point]"}, {"smiles": "CCOc1ccc(/C=N/NC(=O)c2ccc(CSc3nc4ccccc4[nH]3)cc2)cc1", "Potency": "inconclusive [activator, partial curve, poor fit]"}, {"smiles": "O=C(Nc1ccccc1C(F)(F)F)c1cc2ccccc2o1", "activity, positive = re-replication": "inactive: -9.59%"}, {"smiles": "COc1ccc(-c2cc3nc4n(c(=O)c3s2)CCC4)cc1", "activity, positive = re-replication": "inactive: -6.5%"}, {"smiles": "COc1ccc2nc(NC(=O)CCNC(=O)c3ccccc3Cl)sc2c1", "Potency": "inconclusive [activator, full curve, poor fit]"}, {"smiles": "Cc1cc2c(cc1C)/C(=N/NC(=O)c1ccccn1)CCC2", "Potency": "inconclusive [activator, partial curve, poor fit]"}, {"smiles": "O=C(NC(=S)NC1CCCCC1)c1ccc(Cl)cc1", "Potency": "inconclusive [activator, single point]"}, {"smiles": "Cc1ccccc1N(CC(=O)Nc1ccccc1C(=O)NCc1ccco1)S(=O)(=O)c1ccccc1", "Potency": "inconclusive [activator, single point]"}, {"smiles": "Cc1c(OCc2ccc([N+](=O)[O-])cc2)ccc2c3c(c(=O)oc12)CCC3", "activity, positive = re-replication": "inactive: 10.4%"}, {"smiles": "O=C(CNC(=O)c1ccc([N+](=O)[O-])cc1)N/N=C/c1c[nH]c2ccccc12", "activity, positive = re-replication": "inactive: 0.356%"}, {"smiles": "Cc1ccc(C)c(C2NC(=O)c3ccccc3N2)c1", "note": "(configuration not stated)", "Potency": "active: 2.31 µM"}, {"smiles": "CCN(C(=O)COC(=O)c1cccc(S(=O)(=O)N(C)C)c1)c1c(N)n(Cc2ccccc2)c(=O)[nH]c1=O", "activity, positive = re-replication": "inactive: -8.1%"}, {"smiles": "CC(Sc1nnc(CC(=O)Nc2ccccc2F)n1C)C(=O)Nc1nccs1", "note": "(configuration not stated)", "Potency": "inconclusive [activator, single point]"}, {"smiles": "COc1ccc(C(CNC(=O)c2cc3c(s2)CCC(C)C3)N2CCCC2)cc1", "note": "(configuration not stated)", "Potency": "inconclusive [activator, single point]"}, {"smiles": "COC(=O)C1=CN(C2CC2)C=C(C(=O)OC)C1c1ccc(C(F)(F)F)cc1", "Potency": "inconclusive [activator, single point]"}, {"smiles": "CC(C)(C)CC(C)(C)NC(=O)Nc1cccc([N+](=O)[O-])c1", "Potency": "inconclusive [activator, single point]"}, {"smiles": "CC(C)(C)c1ccc(OCC(O)CN2CCCC2)cc1", "note": "(configuration not stated)", "Potency": "inconclusive [activator, partial curve, poor fit]"}, {"smiles": "CC(C)CCNC(=O)Cn1c(=O)oc2cc(S(=O)(=O)N3CCc4ccccc43)ccc21", "activity, positive = re-replication": "inactive: 3.49%"}, {"smiles": "COc1ccc(Oc2c(Cl)cnn(-c3ccc(Cl)c(Cl)c3)c2=O)cc1", "Potency": "inconclusive [activator, partial curve, poor fit]"}, {"smiles": "CNC(=S)Nn1cnc2ccccc21", "activity, positive = re-replication": "inactive: 1.85%"}, {"smiles": "COc1ccc(C(C)(C)C)cc1NS(=O)(=O)c1cccc2cccnc12", "activity, positive = re-replication": "inactive: 14.9%"}, {"smiles": "CC(C)c1ccc(C(C(=O)NC2CCCC2)N(C(=O)c2csnn2)C2CC2)cc1", "note": "(configuration not stated)", "activity, positive = re-replication": "inactive: 4.19%"}, {"smiles": "Cc1ccc(S(=O)(=O)/N=C2\\C(=O)c3ccccc3C([O-])=C2n2cc[n+](CCC(C)C)c2)cc1", "activity, positive = re-replication": "inactive: -4.87%"}, {"smiles": "COc1ccc(Nc2ncnc3c2oc2ccccc23)cc1", "activity, positive = re-replication": "inactive: -4.71%"}, {"smiles": "COc1ccc(NC(=O)C(=O)NNC(=O)COc2ccc(OC)cc2)cc1", "Potency": "inconclusive [activator, single point]"}, {"smiles": "Cc1ccc(Cc2c(C)c(C#N)c3[nH]c4ccccc4n3c2=O)cc1", "Potency": "inconclusive [activator, partial curve, poor fit]"}, {"smiles": "COc1cc(C2NC(=S)NC(c3ccccc3)=C2C(C)=O)cc(Br)c1OCC(N)=O", "note": "(configuration not stated)", "Potency": "inconclusive [activator, partial curve, poor fit]"}, {"smiles": "CC1=C(C(=O)OC(C)C)[C@@H](c2ccc(C)o2)NC(=O)N1", "Potency": "inconclusive [activator, partial curve, poor fit]"}]}]}
